Reference: PubChem BioAssay AID1508642 (National Center for Advancing Translational Sciences (NCATS), 2021)
Out of some 43,000 compounds screened, about 200 (0.47%) were called active. Inconclusive means that the source gave no clear call. Such entries were picked first, then a sample of the others. Calls follow the shape of the dose curve; as a rule, active = well fitted cell-killing curve with a large enough effect; inconclusive = small, poorly fitted or top-dose-only effect, or effect the other way; inactive = flat fitted curve, though single readings scatter. Potencies beside an inconclusive call are fits to weak or partial responses and may not hold up.

Assay: Cell viability qHTS assay in S16 Pmp22-F2sN cells; also: nearly all actives have a fitted effect of over 65% in size
Settings: S16 Pmp22-F2sN Schwann cells viability, CellTiter-Glo, 24 h; activity change, negative = cytotoxicity: at 57.5 µM (top of the series)
Summary of the method: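 Used to flag compounds lowering reporter output through toxicity, this quantitative HTS measures ATP-based CellTiter-Glo luminescence in S16 Pmp22-F2sN Schwann cells after 24 h compound exposure at 37C.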
% is scaled to controls: 0 for no effect and ±100 for the full control effect; potency is read from the fitted curve at half-maximal effect; tags tell the direction and shape of the fitted curve.

| SMILES | Potency | activity change, negative = cytotoxicity |
| --- | --- | --- |
| COc1ccc(NS(=O)(=O)c2ccc(-n3cccn3)cc2)cc1OC | inconclusive: 3.55 µM [cytotoxic, partial curve] | – |
| Cc1cccc(NC(=O)Cn2c(=O)c3cccn3c3ccccc32)c1C | – | inactive: -2.07% |
| CCc1ccc(CN(Cc2cn[nH]c2-c2ccc(OC)cc2)C(=O)Nc2ccc(Br)cc2)cc1 | inconclusive: 39.8 µM [cytotoxic, single point] | – |
| CN(C)c1ccc(C(CNS(=O)(=O)c2ccc(F)cc2F)N2CCOCC2)cc1 (centres undefined) | – | inactive: 3.38% |
| CCN(CC)C(=O)CSc1nc2cc3c(cc2c(=O)n1CCCC(=O)NCc1ccc(OC)cc1)OCO3 | inconclusive: 0.199 µM [rising, full curve] | – |
| O=C(Nc1cccc(C(F)(F)F)c1)Nc1ccc2snnc2c1 | inconclusive: 8.91 µM [cytotoxic, partial curve, poor fit] | – |
| Cc1cc(S(=O)(=O)Nc2ccc(O)c(Sc3nc4ccccc4s3)c2)ccc1Cl | inconclusive: 39.8 µM [cytotoxic, partial curve, poor fit] | – |
| Cc1c(Cl)cccc1-c1ccc(/C=C(\C#N)c2nc3ccccc3[nH]2)o1 | – | inactive: -9.85% |
| CN1CC(=O)Nc2cc(C(=O)O)ccc21 | – | inactive: -1.22% |
| CCOC(=O)c1ccccc1NC(=O)Cn1ccn2nc(-c3ccc(OCC)cc3)cc2c1=O | – | inactive: -3.91% |
| O=C(Nc1ccc2nc(SCC(=O)N3CCCc4ccccc43)sc2c1)c1ccc(Cl)cc1 | inconclusive: 0.282 µM [cytotoxic, full curve, poor fit] | – |
| Cc1ccc(S(=O)(=O)c2nnn3c2nc(N2CCOCC2)c2sccc23)cc1C | – | inactive: -7.64% |
| CCOc1ccccc1CNC(=O)C1CCN(c2nc3ccccc3nc2C(F)(F)F)CC1 | inconclusive: 0.794 µM [cytotoxic, full curve, poor fit] | – |
| CCN(Cc1ccccc1)Cc1c(O)ccc2oc(C)c(C(=O)Nc3ccc(C)cc3C)c12 | inconclusive: 39.8 µM [cytotoxic, partial curve, poor fit] | – |
| C=Cc1ccc(Cn2c(=O)n(-c3cccc(Cl)c3)c(=O)c3c4c(sc32)CN(C(C)=O)CC4)cc1 | inconclusive: 1.58 µM [rising, partial curve, poor fit] | – |
| CCc1c(C)nc2nncn2c1NCc1ccccc1 | inconclusive: 31.6 µM [cytotoxic, single point] | – |
| CCc1ccccc1N(C)C(=O)c1ccc2c(=O)n3c(nc2c1)CCCCC3 | inconclusive: 35.5 µM [cytotoxic, partial curve, poor fit] | – |
| Cc1ccc(C)c(N2CCN(C(=O)c3cnn(-c4ccccc4Cl)c3C3CCN(C(=O)OC(C)(C)C)CC3)CC2)c1 | inconclusive: 35.5 µM [cytotoxic, single point] | – |
| O=C(CSc1nc(-c2ccc(F)cc2)[nH]c1-c1ccc(F)cc1)Nc1ccc2c(c1)OCCO2 | inconclusive: 39.8 µM [cytotoxic, single point] | – |
| COc1ccc(NC(=O)C2CCCN(c3nnc(C)c4c(C)n(-c5ccccc5)nc34)C2)cc1Cl (centres undefined) | inconclusive: 31.6 µM [cytotoxic, single point] | – |

| SMILES | Potency | activity change, negative = cytotoxicity |
| --- | --- | --- |
| O=C(Nc1nnc(S(=O)(=O)N2CCc3ccccc32)s1)c1cccc(Cl)c1 | inconclusive: 11.2 µM [cytotoxic, partial curve, poor fit] | – |
| Cc1ccc(/C=C(\C#N)c2nc3ccccc3c(=O)[nH]2)cc1 | – | inactive: 1.66% |
| O=C(Cn1cc(SCc2c(F)cccc2Cl)c2ccccc21)N1CCCC1 | inconclusive: 20 µM [cytotoxic, partial curve, poor fit] | – |
| COC(=O)c1cc2occc2n1Cc1nc(-c2ccc(C)cc2)oc1C | inconclusive: 3.98 µM [cytotoxic, partial curve, poor fit] | – |
| CCOC(=O)c1ccc(NC(=O)Cn2cc(C(=O)c3ccc(Cl)cc3)c(=O)c3ccc(C)nc32)cc1 | inconclusive: 14.1 µM [cytotoxic, partial curve, poor fit] | – |
| CCCCN(C)CCNC(=O)c1nn(-c2ccc(OC)cc2)c(=O)c2c1c1ccccc1n2C | inconclusive: 20 µM [cytotoxic, partial curve, poor fit] | – |
| CCN1CCN(CCCNC(=O)c2ccc3c(c2)sc2nc(-c4ccc(OC)cc4)cn23)CC1 | inconclusive: 25.1 µM [cytotoxic, single point] | – |
| CC(NC(=O)C(=O)Nc1c2c(nn1-c1ccc(F)cc1)CSC2)c1ccccc1 (centres undefined) | inconclusive: 25.1 µM [cytotoxic, single point] | – |
| COc1ccc2c(c1)CCc1c(C(=O)Nc3c(C)nn(Cc4ccc(C)cc4)c3C)noc1-2 | inconclusive: 20 µM [cytotoxic, single point] | – |
| Cc1cccc(-n2nnnc2S(C)(=O)=O)c1 | active: 5.01 µM | – |
| CCCNC(=O)CCc1c(C)nc2nc(-c3cc(OC)cc(OC)c3)nn2c1C | – | inactive: 1.94% |
| Cc1ccc(OCc2nc3ccccc3n2Cc2ccccc2Cl)cc1 | inconclusive: 22.4 µM [cytotoxic, single point] | – |
| CC(=O)N1CCCc2cc(S(=O)(=O)N(C)CC(=O)Nc3ccc(Cl)cc3C)ccc21 | inconclusive: 22.4 µM [cytotoxic, single point] | – |
| O=C(OCc1cc(=O)n2nc(-c3cccs3)sc2n1)c1ccc(F)cc1 | inconclusive: 22.4 µM [rising, partial curve, poor fit] | – |
| O=C(COCc1cc(-c2ccc3c(c2)OCO3)on1)NCc1ccc(F)cc1 | inconclusive: 6.31 µM [rising, full curve, poor fit] | – |
| O=C(Nc1ccccc1Cl)c1cc2c(-c3ccccc3)nn(-c3ccccc3)c2s1 | – | inactive: 3.58% |
| Cc1cccc(-c2nc(CSCC(=O)N3CCN(c4cccc(C)c4C)CC3)c(C)o2)c1 | – | inconclusive: -36.9% [cytotoxic] |
| O=C(Nc1cc(Cl)cc(Cl)c1)c1ccc(F)c(S(=O)(=O)NCc2ccccc2Cl)c1 | inconclusive: 39.8 µM [cytotoxic, single point] | – |
| CCC(C)NC(=O)c1ccc2nc(Cc3ccccc3)oc2c1 (centres undefined) | inconclusive: 28.2 µM [cytotoxic, partial curve, poor fit] | – |
